Measurements from paper PMC5399293, “Hierarchical assembly of centriole subdistal appendages via centrosome binding proteins CCDC120 and CCDC68” (Nature Communications, 2017).
Results are given in words; binding and its absence hold for the method and conditions named. For some of these results: Binding seen in cells or lysates may run through a third protein. Some results given as binding are weak or reduced against the parent protein; the word gives no strength. For some of these results: Where a sequence is shown, tags or fusion partners need not be part of it. Each block holds one molecule with its values, some of them ahead of it.

How the values were obtained:
[1] = molecular target: T1, CCDC120 (91–320 aa) of the GST pull-down (Supplementary Fig. 4g,h) (human) (UniProt Q96HB5); assay: pull-down; GST pull-down (Supplementary Fig. 4g,h); which partner carried GST and where the other came from is not told
T1 sequence: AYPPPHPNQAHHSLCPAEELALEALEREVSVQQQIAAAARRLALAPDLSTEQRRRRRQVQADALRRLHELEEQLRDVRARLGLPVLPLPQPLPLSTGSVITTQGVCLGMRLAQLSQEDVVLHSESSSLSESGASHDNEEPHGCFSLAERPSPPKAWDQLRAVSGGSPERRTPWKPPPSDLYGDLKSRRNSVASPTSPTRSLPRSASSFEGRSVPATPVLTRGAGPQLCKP

[2] = molecular target: T2, CCDC120-Flag truncate N2 (91–320 aa) (human) (UniProt Q96HB5); assay: co-IP; exogenous immunoprecipitation from lysates of co-transfected HEK293T cells (50 mM HEPES, 0.1% NP-40, 250 mM NaCl, 1 mM dithiothreitol, 5 mM EDTA, 10% glycerol, pH 7.5), tag antibodies on protein G-Sepharose; immunoblot
T2 sequence: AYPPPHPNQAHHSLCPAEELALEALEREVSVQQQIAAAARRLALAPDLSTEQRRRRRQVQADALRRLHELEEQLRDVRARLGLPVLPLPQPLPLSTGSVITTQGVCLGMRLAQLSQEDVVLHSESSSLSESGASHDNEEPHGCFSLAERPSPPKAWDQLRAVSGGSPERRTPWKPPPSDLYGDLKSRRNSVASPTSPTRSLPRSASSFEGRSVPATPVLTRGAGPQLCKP

[3] = molecular target: T3, CCDC120-Flag truncate N (1–320 aa) (human) (UniProt Q96HB5); assay: as above
T3 sequence: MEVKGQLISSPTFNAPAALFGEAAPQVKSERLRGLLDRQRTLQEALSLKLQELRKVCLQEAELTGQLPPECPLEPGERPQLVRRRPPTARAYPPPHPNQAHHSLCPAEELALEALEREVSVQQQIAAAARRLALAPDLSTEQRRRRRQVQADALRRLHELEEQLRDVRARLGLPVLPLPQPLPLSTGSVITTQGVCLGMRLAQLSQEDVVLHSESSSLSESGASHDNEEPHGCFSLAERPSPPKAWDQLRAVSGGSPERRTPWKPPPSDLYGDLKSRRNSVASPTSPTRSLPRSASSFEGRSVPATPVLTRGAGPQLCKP

[4] = molecular target: T4, Coiled-coil domain containing 120 (CCDC120), endogenous (human (endogenous in HeLa)) (UniProt Q96HB5); assay: co-IP; endogenous immunoprecipitation from HeLa lysates (50 mM HEPES, 150 mM NaCl, 1 mM EDTA, 0.5% Triton X-100, pH 7.4) with anti-CCDC120 or anti-CCDC68 antibody on protein A-Sepharose; immunoblot
T4 sequence: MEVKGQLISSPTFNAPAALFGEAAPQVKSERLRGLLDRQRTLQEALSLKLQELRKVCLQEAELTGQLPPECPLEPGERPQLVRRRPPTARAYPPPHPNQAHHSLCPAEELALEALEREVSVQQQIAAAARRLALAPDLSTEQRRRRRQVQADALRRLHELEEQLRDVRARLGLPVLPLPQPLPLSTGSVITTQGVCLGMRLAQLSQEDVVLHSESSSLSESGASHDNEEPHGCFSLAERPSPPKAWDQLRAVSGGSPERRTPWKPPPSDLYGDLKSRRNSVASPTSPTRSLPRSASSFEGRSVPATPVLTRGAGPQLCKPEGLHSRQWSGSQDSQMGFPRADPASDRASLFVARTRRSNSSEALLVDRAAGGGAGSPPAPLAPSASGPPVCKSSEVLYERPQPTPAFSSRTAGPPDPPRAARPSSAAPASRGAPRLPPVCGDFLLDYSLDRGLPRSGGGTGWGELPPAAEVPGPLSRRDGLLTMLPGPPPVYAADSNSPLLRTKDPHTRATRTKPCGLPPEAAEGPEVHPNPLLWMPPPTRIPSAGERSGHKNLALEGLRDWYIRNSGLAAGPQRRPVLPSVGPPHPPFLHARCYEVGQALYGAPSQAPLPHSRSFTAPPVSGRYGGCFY

[5] = molecular target: T5, CCDC120, yeast two-hybrid fusion (Supplementary Fig. 2f) (human) (UniProt Q96HB5); assay: two-hybrid; Matchmaker system, bait pGBKT7 and prey pGADT7 in yeast AH109, growth on quadruple (Trp-, Leu-, His-, Ade-) selective medium, 30 °C
T5 sequence: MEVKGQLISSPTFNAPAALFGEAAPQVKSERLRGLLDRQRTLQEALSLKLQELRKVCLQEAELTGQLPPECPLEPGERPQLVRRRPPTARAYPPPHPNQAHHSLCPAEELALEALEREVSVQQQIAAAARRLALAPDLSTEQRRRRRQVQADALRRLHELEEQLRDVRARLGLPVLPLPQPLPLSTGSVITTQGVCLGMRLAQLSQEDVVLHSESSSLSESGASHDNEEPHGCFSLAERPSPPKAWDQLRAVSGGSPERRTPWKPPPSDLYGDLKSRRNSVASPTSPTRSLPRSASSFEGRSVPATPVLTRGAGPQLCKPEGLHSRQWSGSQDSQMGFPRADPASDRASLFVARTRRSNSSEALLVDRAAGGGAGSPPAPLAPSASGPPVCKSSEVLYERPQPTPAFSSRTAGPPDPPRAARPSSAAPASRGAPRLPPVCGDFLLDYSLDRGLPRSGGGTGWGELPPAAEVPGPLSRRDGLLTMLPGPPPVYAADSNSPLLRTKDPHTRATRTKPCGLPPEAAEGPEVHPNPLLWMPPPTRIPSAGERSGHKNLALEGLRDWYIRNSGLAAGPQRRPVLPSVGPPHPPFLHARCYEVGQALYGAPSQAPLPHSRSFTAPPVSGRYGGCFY

[6] = molecular target: T6, CCDC120 (91–320 aa), yeast two-hybrid bait (human) (UniProt Q96HB5); assay: as above
T6 sequence: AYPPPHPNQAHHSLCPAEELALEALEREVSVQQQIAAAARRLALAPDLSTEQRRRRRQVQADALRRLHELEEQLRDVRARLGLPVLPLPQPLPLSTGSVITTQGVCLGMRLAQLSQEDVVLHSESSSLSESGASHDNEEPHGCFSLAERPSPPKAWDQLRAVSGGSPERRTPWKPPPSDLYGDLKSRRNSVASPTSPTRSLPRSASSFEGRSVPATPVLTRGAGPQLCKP

[7] = molecular target: T7, CCDC120-Flag, full length (human) (UniProt Q96HB5); assay: co-IP; exogenous immunoprecipitation from lysates of co-transfected HEK293T cells (50 mM HEPES, 0.1% NP-40, 250 mM NaCl, 1 mM dithiothreitol, 5 mM EDTA, 10% glycerol, pH 7.5), tag antibodies on protein G-Sepharose; immunoblot
T7 sequence: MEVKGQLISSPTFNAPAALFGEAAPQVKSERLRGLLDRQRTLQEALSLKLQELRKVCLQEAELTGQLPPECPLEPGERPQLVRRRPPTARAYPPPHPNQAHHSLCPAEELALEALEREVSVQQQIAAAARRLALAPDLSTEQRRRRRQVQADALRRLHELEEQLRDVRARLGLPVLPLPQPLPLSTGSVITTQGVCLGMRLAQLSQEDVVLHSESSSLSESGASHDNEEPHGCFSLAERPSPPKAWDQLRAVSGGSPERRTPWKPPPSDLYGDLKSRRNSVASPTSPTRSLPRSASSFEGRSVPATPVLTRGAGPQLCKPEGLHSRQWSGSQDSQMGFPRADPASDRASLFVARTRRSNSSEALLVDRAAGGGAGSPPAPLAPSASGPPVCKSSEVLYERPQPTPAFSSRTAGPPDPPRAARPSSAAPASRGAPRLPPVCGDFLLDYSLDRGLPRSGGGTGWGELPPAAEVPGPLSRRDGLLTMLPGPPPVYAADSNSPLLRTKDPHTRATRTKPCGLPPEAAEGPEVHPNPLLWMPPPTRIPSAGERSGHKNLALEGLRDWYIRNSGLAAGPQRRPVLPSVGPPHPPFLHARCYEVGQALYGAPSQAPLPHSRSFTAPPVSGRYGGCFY

binding [1]: binds
Molecule: hNinein of the GST pull-down (Supplementary Fig. 4g,h) (from UniProt Q8N4C6 1-2090)

binding [2]: binds | binding [3]: binds
Molecule: hNinein-GFP, full length (from UniProt Q8N4C6 1-2090)

binding [4]: binds
Molecule: human Ninein (hNinein), endogenous (from UniProt Q8N4C6 1-2090)

binding [5]: no binding
B1: ODF2, yeast two-hybrid fusion (Supplementary Fig. 2f) (protein, UniProt Q5BJF6 1-829)
chain: MSASSSGGSPRFPSCGKNGVTSLTQKKVLRAPCGAPSVTVTKSHKRGMKGDTVNVRRSVRVKTKVPWMPPGKSSARPVGCKWENPPHCLEITPPSSEKLVSVMRLSDLSTEDDDSGHCKMNRYDKKIDSLMNAVGCLKSEVKMQKGERQMAKRFLEERKEELEEVAHELAETEHENTVLRHNIERMKEEKDFTILQKKHLQQEKECLMSKLVEAEMDGAAAAKQVMALKDTIGKLKTEKQMTCTDINTLTRQKELLLQKLSTFEETNRTLRDLLREQHCKEDSERLMEQQGALLKRLAEADSEKARLLLLLQDKDKEVEELLQEIQCEKAQAKTASELSKSMESMRGHLQAQLRSKEAENSRLCMQIKNLERSGNQHKAEVEAIMEQLKELKQKGDRDKESLKKAIRAQKERAEKSEEYAEQLHVQLADKDLYVAEALSTLESWRSRYNQVVKEKGDLELEIIVLNDRVTDLVNQQQTLEEKMREDRDSLVERLHRQTAEYSAFKLENERLKASFAPMEDKLNQAHLEVQQLKASVKNYEGMIDNYKSQVMKTRLEADEVAAQLERCDKENKILKDEMNKEIEAARRQFQSQLADLQQLPDILKITEAKLAECQDQLQGYERKNIDLTAIISDLRSRIEHQGDKLEMAREKHQASQKENKQLSLKVDELERKLEATSAQNIEFLQVIAKREEAIHQSQLRLEEKTRECGTLARQLESAIEDARRQVEQTKEHALSKERAAQNKILDLETQLSRTKTELSQLRRSRDDADRRYQSRLQDLKDRLEQSESTNRSMQNYVQFLKSSYANVFGDGPYSTFLTSSPIRSRSPPA

binding [6]: binds
B2: hNinein N terminus (1–480 aa), yeast two-hybrid prey (domain or fragment, UniProt Q8N4C6 1-480)
chain: MDEVEQDQHEARLKELFDSFDTTGTGSLGQEELTDLCHMLSLEEVAPVLQQTLLQDNLLGRVHFDQFKEALILILSRTLSNEEHFQEPDCSLEAQPKYVRGGKRYGRRSLPEFQESVEEFPEVTVIEPLDEEARPSHIPAGDCSEHWKTQRSEEYEAEGQLRFWNPDDLNASQSGSSPPQDWIEEKLQEVCEDLGITRDGHLNRKKLVSICEQYGLQNVDGEMLEEVFHNLDPDGTMSVEDFFYGLFKNGKSLTPSASTPYRQLKRHLSMQSFDESGRRTTTSSAMTSTIGFRVFSCLDDGMGHASVERILDTWQEEGIENSQEILKALDFSLDGNINLTELTLALENELLVTKNSIHQAALASFKAEIRHLLERVDQVVREKEKLRSDLDKAEKLKSLMASEVDDHHAAIERRNEYNLRKLDEEYKERIAALKNELRKEREQILQQAGKQRLELEQEIEKAKTEENYIRDRLALSLKEN

binding [7]: binds
B3: hNinein-GFP truncate N (1–480 aa) (domain or fragment, UniProt Q8N4C6 1-480)
chain: MDEVEQDQHEARLKELFDSFDTTGTGSLGQEELTDLCHMLSLEEVAPVLQQTLLQDNLLGRVHFDQFKEALILILSRTLSNEEHFQEPDCSLEAQPKYVRGGKRYGRRSLPEFQESVEEFPEVTVIEPLDEEARPSHIPAGDCSEHWKTQRSEEYEAEGQLRFWNPDDLNASQSGSSPPQDWIEEKLQEVCEDLGITRDGHLNRKKLVSICEQYGLQNVDGEMLEEVFHNLDPDGTMSVEDFFYGLFKNGKSLTPSASTPYRQLKRHLSMQSFDESGRRTTTSSAMTSTIGFRVFSCLDDGMGHASVERILDTWQEEGIENSQEILKALDFSLDGNINLTELTLALENELLVTKNSIHQAALASFKAEIRHLLERVDQVVREKEKLRSDLDKAEKLKSLMASEVDDHHAAIERRNEYNLRKLDEEYKERIAALKNELRKEREQILQQAGKQRLELEQEIEKAKTEENYIRDRLALSLKEN
